Measurements from a compilation of properties of binary mixtures (doi:10.1016/j.molliq.2016.02.018).
Some of these densities may be calculated back from excess volumes.

Experiment: xn = mol fraction of the nth substance listed
Conditions: 101 kPa

CC(=O)[O-].CCCC[n+]1ccn(C)c1 + CCCC[n+]1ccn(C)c1.O=S(=O)([N-]S(=O)(=O)C(F)(F)F)C(F)(F)F
mass density [kg/m3]
Conditions | x2 = 0 | x2 = 0.1057 | x2 = 0.2396 | x2 = 0.321 | x2 = 0.3662 | x2 = 0.5245 | x2 = 0.6541 | x2 = 0.8097
283.15 K | – | – | 1186 | – | – | 1303 | 1349 | 1397
298.15 K | 1052 | 1109 | 1174 | – | 1230 | 1291 | 1336 | –
313.15 K | – | – | 1164 | – | – | 1279 | – | –
314.3 K | 1068 | – | – | 1212 | – | 1285 | – | –
333.15 K | 1030 | – | 1150 | – | 1203 | 1263 | 1306 | 1352

CCCC[n+]1ccn(C)c1.O=S(=O)([N-]S(=O)(=O)C(F)(F)F)C(F)(F)F + CC(=O)[O-].CCCC[n+]1ccn(C)c1
Conditions | mass density [kg/m3]
283.15 K, x1 = 1 | 1451
